± gives the standard deviation of the averaged measurements. The list shows a part of the results.
Test system: PfAP2-LT AP2 domain (GST-tagged)
Test: gcPBM binding intensity (ln(normalized median fluorescence intensity)); higher = stronger DNA binding
Outline: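 Each value is the highest Masliner-normalised natural-log median intensity across replicate spots of either orientation of a probe. The probes were primer-extended double-stranded 36-bp intergenic genomic sequences on an Agilent 4 × 180k array, alongside negative controls, exposed for 1 h to GST-tagged P. falciparum DNA-binding domains expressed in E. coli. Bound protein was picked up with Alexa488 anti-GST antibody and scanned at 488 nm.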

Point of comparison: “TTCAGTGTATACATATGTACATATATATATATATAT [XGTACX_site1621]”, “gcPBM binding intensity (ln)” value 9.835 ± 0.092. Against it:
- CATTATGTACAAAAAGTGCAATATATATTAACACTG — lower, 8.79 ± 0.36
- AACAAAATAAGAAAACGTACAAATGTTTCAAATTCT [XGTACX_site1544] — lower, 8.82 ± 0.54
- TATGTATATTCTTTCAGTACACATAATGTTGTCATA [XGTACX_site8845] — lower, 8.78 ± 0.42
- AAAATGTTATTGGAAAGTACAAAAAAAATTATATAA [XGTACX_site4074] — lower, 8.62 ± 0.35
- TTAATATATATATATATATATATATTTTTATTTTTT [CACACA_negctrl_site763] — lower, 8.96 ± 0.31
- TGTATTAACAAAAAGGTGCGGATATATATAAAAAAT [GTGCAC_site9473] — lower, 8.99 ± 0.46
- ATAAAACGTACAATGGTGCATATAAATAATATATAT [GTGCAC_site9960] — lower, 9.12 ± 0.45
- CATATATAGATATATACACACATATATAAATAAATA [CACACA_site6759] — lower, 9.15 ± 0.4
- TACATACATACATACACACACACATATATATACATA [CACACA_site853] — within error, 10.1 ± 0.23
- TAATATCTAAAAAATATATTTTTTATTTTTTATTAA [CACACA_negctrl_site510] — lower, 8.21 ± 0.54
- ATATCATTAAAAGGATGTACATATGTGTATACAATA [XGTACX_site871] — lower, 8.94 ± 0.42
- TAAAAAATATAAACTGCACACACAAAAAAAAAAGAG [CACACA_site8379] — within error, 9.41 ± 0.36
- AATTTAAAATAATATTGTACTTAGATATAAATATGA [XGTACX_site4198] — lower, 8.29 ± 0.41
- ATGGTACACAAATATACATGCAATAATAAAAAAAAA [TGCATGCA_site879] — lower, 8.96 ± 0.47
- TTTTTATTACATAATTAAAAAAAATAATAAAATAAA [XGTACX_negctrl_site249] — lower, 8.03 ± 0.55
- TGCAGTCTGGAGAAAAGTACATAGTATCTGGTAACC [XGTACX_site2019] — lower, 8.88 ± 0.45
- TTTTTTTTTTAATTCGCACACTGTCTTCATACAATT [CACACA_site1379] — within error, 9.15 ± 0.65
- ATATATATATATTTATGTACTTAATAATTTATTCAC [XGTACX_site7301] — lower, 8.97 ± 0.38
- TCATTTCACGGACACACACACACAATATATTTCCTT [CACACA_site6023] — within error, 9.79 ± 0.29
- AAAAAATATTTTTACAGTACATATATATAAAATGTT [XGTACX_site3215] — lower, 8.61 ± 0.5
- TAACAAAGGAAAGATATACACACGTATGCATGATAA [CACACA_site2520] — lower, 9.12 ± 0.4
- CATTAATATATATATACATGCACGTTTTAAAAAAAA [TGCATGCA_site875] — lower, 8.65 ± 0.36
- TAATTATGCAGACACACACACACACGCAACTAAAAA [CACACA_site7253] — within error, 10 ± 0.3
- ATGGGAATATAATTATGTACATATAAAAATTATAAA [XGTACX_site5336] — lower, 8.76 ± 0.42
- TGTATGAAATATATTACACACATATATAATATATAT [CACACA_site793] — lower, 8.95 ± 0.3
- GTGTAAATAAGGATATATAACAATCAACAAAACATA [CACACA_negctrl_site1759] — lower, 9.01 ± 0.54
- ATATTTTTCAAACATCGTACATTATGAGTTAAAATT [XGTACX_site584] — lower, 8.44 ± 0.49
- ATACACAAAATTATTAAATCAATAAATATATGGTTT [CACACA_negctrl_site353] — lower, 8.69 ± 0.49
- AAAATACATAAATGTTCACACATTAAAAAGCAGAAG [CACACA_site5346] — lower, 9.03 ± 0.4
- TATGTCAGATGAAAGGGTACATAATATAATATATTT [XGTACX_site8062] — lower, 8.65 ± 0.41
- TTTATAAAGAAACACACACACATGTGAACATAAAAA [CACACA_site1908] — lower, 9.46 ± 0.25
- CATAACATAAAATAGGTGCACAAAAATTGTAATTGA — within error, 9.29 ± 0.62
- TTATAAATGAATAAATGTACAAAATATATATATATA [XGTACX_site8829] — lower, 9.01 ± 0.34
- CACACCCACCAACACACACACACACCCACCCATATA [CACACA_site366] — higher, 10.3 ± 0.12
- ATTTTTATTTGTTACGCATGCATAAAAGTGCATACT [TGCATGCA_site547] — lower, 8.85 ± 0.35
- TTGTAATATATGTATTGTACGCATATAACAATTATT [XGTACX_site3652] — lower, 8.68 ± 0.33
- TATTATTATCTTACCACACACAATGTACGAAAAGAT [CACACA_site352] — lower, 9.01 ± 0.31
- AAATTAAAAAGACATTCACACATTTTCATCTTAACA [CACACA_site5221] — lower, 8.54 ± 0.47
- TAACATATAATATTCACACACATATATATATTATAT [CACACA_site988] — lower, 9.24 ± 0.38
- AAACATATATATATTATATATATATATATATATATG [GTGCAC_negctrl_site182] — lower, 9.02 ± 0.17
- TGTAGGTATTATTATACACACATAAAAAAAAAAAAA [CACACA_site3598] — lower, 8.88 ± 0.45
- TAAAATATTATAAAATGTACAAAACATATAAATATA [XGTACX_site5315] — lower, 8.72 ± 0.45
- TATATAAACATATAAACATGCAATATATATATGTTA [TGCATGCA_site765] — lower, 8.73 ± 0.37
- GGAAAAAAACTTATGAGTACACATAAATATAGCACA [XGTACX_site6686] — lower, 8.91 ± 0.42
- AAAAATATATAACAAAGTACATATATATTTAGTAAT [XGTACX_site8791] — lower, 8.83 ± 0.51
- AAAAAAATTAAATCAAGTACTCATTCTTAAATTATA [XGTACX_site1274] — lower, 8.32 ± 0.42
- ATATTGATACATCCAATACACACTACATATAATGAT [CACACA_site1874] — lower, 8.99 ± 0.35
- TATATTTTCTATAGGTGTACTCCACATGCGGTGTTA [XGTACX_site7471] — lower, 8.86 ± 0.56
- AAACATCTTTACAACGTCCCTCCTTTTTTATGTACC [GTGCAC_negctrl_site528] — lower, 8.94 ± 0.61
- AATATATATAAATATTGTACAAAAATATATATATAT [XGTACX_site2910] — lower, 9.07 ± 0.34
- ATATATGATGTAAAAGCACACATATATATATATATA [CACACA_site9330] — within error, 9.82 ± 0.27
- TCCCTCTTTTTATTCTCACACACGTTTATATATAAA [CACACA_site1644] — lower, 9.21 ± 0.35
- ATTTTATTCTAAAAAGGTACACATATTATTTTATGA [XGTACX_site7233] — lower, 8.43 ± 0.52
- TAAATAAGGAAGGAAACACACATTAAAAAATAAATA [CACACA_site618] — lower, 8.84 ± 0.59
- AACAGAAGCACATACACACACTCAAAAAAAAAAAAA [CACACA_site5652] — within error, 9.37 ± 0.53
- TCTTACTAATATCGCACACACATATGTAGACGGGAT [CACACA_site87] — within error, 9.43 ± 0.41
- TATTTATATGGACACACACACATATAAATAAATAAA [CACACA_site6346] — within error, 9.47 ± 0.29
- TATTGACAAAATAGCTGTACAAATTAAAAGAAATAA [XGTACX_site4415] — lower, 8.7 ± 0.53
- CGATATGTTCAATATTGTACTATTTATAATAATATG [XGTACX_site3051] — lower, 8.58 ± 0.45
- ATGGCCATAATATAGACACACATATATAAATATATA [CACACA_site2230] — lower, 9 ± 0.44
- CTTAAAAAAAAAAAATGTACACATAAAAAAAATACA [XGTACX_site6700] — lower, 8.64 ± 0.56
- TTATTGTCTTCTCATATACACACTTTTATGACTATC [CACACA_site3142] — lower, 9.2 ± 0.42
- TTTAATTGATAATGAAGACAATTATATGCATCCAAA [TGCATGCA_negctrl_site138] — lower, 8.45 ± 0.38
- ATTAATATATATGGATGTACTTATGTATGTATGCAT [XGTACX_site2263] — lower, 8.98 ± 0.28
- ATAATAATATATATTACACACGCATCGTTCATTTAT [CACACA_site8752] — lower, 9.28 ± 0.26
- GGAAAAACCATTCGCACACACACATAATATATAATA [CACACA_site1424] — within error, 9.71 ± 0.31
- CATGTATAATATAATACACACTATATAATATACACC [CACACA_site5267] — lower, 9.18 ± 0.36
- TTATTTGAACAATATGCACACATTTTATTTATTTTA [CACACA_site3420] — lower, 8.93 ± 0.47
- TTAATGTTGTATGGTTGTACAATAAGCCCCTTTTAA [XGTACX_site2484] — lower, 8.55 ± 0.38
- TATATATATATGTGCACACATAATAAAAAAAAAAAT [CACACA_site3831] — within error, 9.76 ± 0.24
- TTTTATTTTATTCTTAAATAAGTATTATAAAATATG [XGTACX_negctrl_site201] — lower, 8.31 ± 0.42
- TATAAAGCATATTAAAGTACTTATTTTCCTTTTTCT [XGTACX_site8892] — lower, 8.49 ± 0.67
- TACCCTGATCGGCATGCATGTAAGTAACAAATATAT [TGCATGCA_site153] — lower, 8.93 ± 0.46
- ATTCAAACAAATTAATGTACATATATATAAGATATT [XGTACX_site1531] — lower, 8.82 ± 0.37
- ATTTAGAAATATATTTGTACATATATATATATATAT [XGTACX_site7129] — lower, 9.34 ± 0.11
- CTACATATTAATATATGTACATATTAATATATCTAA [XGTACX_site7118] — lower, 8.61 ± 0.4
- ATATATACATATAAATGTACATAATTATTATGCACA [XGTACX_site1261] — lower, 8.76 ± 0.37
- ATAAAAAGAAAAAAGGGTACACTATACTATTTAAAA [XGTACX_site4467] — lower, 8.64 ± 0.54
- TGTTGATAAAAAATAAAAAATAAAAAAATAAAATAT [TGCATGCA_negctrl_site559] — lower, 8.54 ± 0.47
- TATGATGATATAAAAACACACACATATAATATAATA [CACACA_site8321] — lower, 9.38 ± 0.23
- TTAAAGCTTACATATACACACATACATAAATTCATA [CACACA_site8785] — lower, 8.94 ± 0.37
- TTTTGATCATCCAAAATATCTTCATCTGAACTACTA [CACACA_negctrl_site939] — lower, 8.57 ± 0.52
- GACATATTCCCCCCCACACACACACCCACATACATA [CACACA_site2302] — higher, 11.1 ± 0.18
- GTAAAATAAAATATATGTACATATGTATATGAGGTA [XGTACX_site3743] — lower, 9.07 ± 0.44
- TTTTTATATAACCTTCTTAATTCTTTTTTTTTTTTT [XGTACX_negctrl_site591] — lower, 8.3 ± 0.61
- AAAACAAAATTATGAACATGCAAGGTAAAATTGTAA [TGCATGCA_site775] — lower, 9.02 ± 0.51
- AATATAATATAATGCACACATAAAAAAAAAATCAAA [CACACA_site122] — lower, 9.13 ± 0.53

Source: the supplement of paper PMC11417369
